In all, about 120,000 compounds went through this assay and about 5,300 (4.4%) were called active. This list was built around the results that the source calls inconclusive (neither active nor inactive); the mix of calls is not that of the screen. Calls come from the whole dose curve; as a rule, active = well fitted inhibition curve with a large enough effect; inconclusive = small, poorly fitted or top-dose-only effect; inactive = no such curve, though single readings can be large or run the other way. Potencies beside an inconclusive call are fits to weak or partial responses and may not hold up.
Test: qHTS Primary assay for Inhibitors of Plasmodium falciparum Dd2 growth in vitro; note: nearly all actives have a fitted effect of over 65% in size;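 for activity, negative = inhibition: plate controls were DMSO vehicle for no effect and reference drug for full effect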
Conditions: P. falciparum Dd2 growth, SYBR Green, 72 h; activity, negative = inhibition: at 28.9 µM (top of the series) unless noted; series mostly up to 28.9 µM
In short: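 Infected erythrocytes (Dd2, 0.3% parasitemia, 2.5% hematocrit final) are added to compound in RPMI-1640/Albumax II medium, grown 72 h at 37C in low oxygen, then lysed with saponin/Triton-X containing SYBR Green and read by fluorescence.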
Potency is the fitted concentration of half-maximal effect; tags give direction and shape of the fitted curve.

SMILES | Potency | activity, negative = inhibition
CCc1ccc(C(=O)c2cn(CC(=O)Nc3ccc(OC)c(Cl)c3)c3nc(C)ccc3c2=O)cc1 | inconclusive: 10 µM [inhibitor, partial curve] | 
CCCCN1C(=O)CC[C@H]2CN(C(=O)CCn3cccc3)CC[C@H]21 | inactive | 
C=C[C@H]1CN2CC[C@H]1C[C@@H]2CNCc1ccc(C(C)C)cc1 | inconclusive: 2.51 µM [inhibitor, partial curve, poor fit] | 
COc1cccc(-c2noc(CC3CCN(C(=O)c4ccc(C)cc4C)CC3)n2)c1 | inactive | 
CN(C)c1ccc(CN2CCC3(CC2)CC(=O)c2ccc(Cl)cc2O3)cc1 | inconclusive: 3.98 µM [inhibitor, partial curve, poor fit] | 
CNC(=O)N1CCC(C2CCN(C(=O)c3cnccc3C)C2)CC1 (stereo not drawn) | inactive | 
O=C(NCC(F)(F)F)C1CN(Cc2ccccc2)C(=O)N1 (stereo not drawn) | inactive | 
Cc1ccc(S(=O)(=O)N2CCCc3cc(NC(=O)c4ccc(C(C)(C)C)cc4)ccc32)cc1 | inconclusive: 0.0794 µM [inhibitor, partial curve, poor fit] | 
CCNC(=O)N1CCCC1c1noc(CCC(=O)NCCc2nc3ccccc3[nH]2)n1 (stereo not drawn) | inactive | 
Fc1cc(F)cc(-c2ccc(CN3CC4CCC(C3)N4c3ccc(C(F)(F)F)cc3)cc2)c1 |  | inconclusive: -115% [inhibitor]
O=C(Nc1ccc(Cl)cc1)c1nc2c(o1)CCN(Cc1cccc(F)c1)CC2 | inconclusive: 3.16 µM [inhibitor, partial curve, poor fit] | 
CC(=O)Nc1ccc(C2(C(=O)NCc3ccc(F)cc3F)CCCCC2)cc1 | inactive | 
Cc1ccc(C)c(NC(=O)Cn2c(=O)n(Cc3ccco3)c(=O)c3ccc(C(=O)NC4CCCC4)cc32)c1 | inconclusive: 11.2 µM [inhibitor, single point] | 
O=C(Cc1cccn1-c1ccc(F)cc1)NCCN1CCc2ccccc2C1 | inconclusive: 14.1 µM [inhibitor, partial curve, poor fit] | 
O=C(Cn1c(=O)oc2ccccc21)NCC1Cn2cccc2C(=O)N1Cc1cccnc1 (stereo not drawn) | inconclusive: 14.1 µM [inhibitor, partial curve, poor fit] | 
CN1C(=O)C2(CCN(C(=O)c3ccc(S(N)(=O)=O)cc3)CC2)c2ccccc21 | inconclusive: 0.355 µM [inhibitor, partial curve, poor fit] | 
Cc1cc(C)cc(OCC(=O)NCC2(N3CCOCC3)CCCCC2)c1 | inconclusive: 0.0282 µM [inhibitor, full curve, poor fit] | 
Cc1ccc(-n2c(C3CCN(C(=O)Cc4cccc(C)c4)CC3)n[nH]c2=O)cc1 | inconclusive: 10 µM [inhibitor, single point] | 
Cc1cc(C[C@@H]2COC[C@@H]2NC(=O)CCN2CCCC2=O)on1 | inactive | 
NC(=O)C1(N2CCCCC2)CCN(c2nccc(-c3ccncc3)n2)CC1 | inactive | 
CCOc1ccccc1C(=O)NCc1nnc2ccc(-c3ccc(C)c(C)c3)nn12 | inactive | 

SMILES | Potency | activity, negative = inhibition
Cc1occc1-c1nc2ccncc2[nH]1 | inconclusive: 2.82 µM [inhibitor, partial curve, poor fit] | 
CC(C)C1(CNC(=O)c2coc(COc3ccc4c(c3)OCO4)n2)CC1 | inactive | 
O=C(N[C@@H]1CCOC[C@H]1Oc1cccc(F)c1)c1cnc2ccccn2c1=O | inconclusive: 6.31 µM [inhibitor, single point] | 
COc1c(F)cc(CNCC2(O)CCCNC2)cc1F (stereo not drawn) | inactive | 
CCc1cccc2c(C(CC(=O)N3CCCCC3)c3cccc(OC)c3)c[nH]c12 (stereo not drawn) | inconclusive: 5.01 µM [inhibitor, partial curve, poor fit] | 
COc1ccc(CCNC(=O)Cn2c(-c3cccs3)cc3cc(F)ccc32)cc1OC | inconclusive: 1.41 µM [inhibitor, full curve, poor fit] | 
COc1ccccc1CCn1cnc(-c2ccccc2)c1-c1cn(C)nc1C | inconclusive: 11.2 µM [inhibitor, partial curve] | 
Cc1c(Cl)cccc1Nc1ncncc1-c1nc(-c2ccccc2)no1 | inconclusive: 1.26 µM [inhibitor, partial curve, poor fit] | 
c1cc(CN2CCc3c(sc4ncnc(N5CCCC5)c34)C2)ccn1 | inconclusive: 5.01 µM [inhibitor, partial curve, poor fit] | 
CCc1nc2c(c(-c3ccc(Cl)cc3)n1)CCN(C(=O)c1ccc(C(F)(F)F)cc1)CC2 | inconclusive: 1.12 µM [inhibitor, partial curve, poor fit] | 
O=C1NCCCCCCN(C(=O)CCc2ccccc2)[C@H]2C[C@H](c3nc(-c4cnccn4)no3)C[C@@H]12 | inconclusive: 17.8 µM [inhibitor, single point] | 
COc1ccc(CC(=O)Nc2ccc3c(c2)CN(Cc2cccc(OC)c2OC)C(=O)C(C)O3)cc1 (stereo not drawn) | inconclusive: 3.98 µM [inhibitor, single point] | 
COc1ccc(CC(=O)N2C[C@@H]3CC[C@H](C2)N(CC2CCC2)C3)c(OC)c1 | inconclusive: 10 µM [inhibitor, partial curve, poor fit] | 
Cc1nc(-c2ccccc2)n(Cc2ccc(C#N)cc2)c(=O)c1CCO | inconclusive: 17.8 µM [inhibitor, single point] | 
CCn1nc(C)cc1C(=O)N1CCCN(Cc2ccc(F)cc2)C(C(C)C)C1 (stereo not drawn) | inconclusive: 8.91 µM [inhibitor, partial curve, poor fit] | 
Fc1cccc(CSc2nc(NCCc3ccccc3)c3ccccc3n2)c1 | inconclusive: 6.31 µM [inhibitor, partial curve] | 
COc1ccc(-c2nc(C3CN(C(=O)Nc4cccc(F)c4)C3)no2)cc1 | inconclusive: 3.16 µM [inhibitor, partial curve, poor fit] | 
CC(C)c1ccc(C(=O)N2CCC(Cc3nc(-c4ccc(F)cc4)no3)CC2)cc1 | inactive | 
CN1CCCCCC(O)c2cc(C(=O)N3CCN(c4ccccc4F)CC3)ccc21 (stereo not drawn) | inactive | 
c1ccc(-c2noc(-c3cncnc3N3CCCCCC3)n2)cc1 | inconclusive: 2.24 µM [inhibitor, partial curve] | 
COc1cc(C(=O)NCCSc2c(-c3ccccc3)[nH]c3ccccc23)cc(OC)c1OC | inconclusive: 11.2 µM [inhibitor, single point] | 

SMILES | Potency | activity, negative = inhibition
CN(C)C[C@@H]1CN(c2ncccn2)C[C@H]1NC(=O)Cc1ccc(F)cc1 | inconclusive: 6.31 µM [inhibitor, partial curve, poor fit] | 
CCC1Oc2ccc(NC(=O)COc3ccccc3)cc2CN(Cc2ccc(F)cc2)C1=O (stereo not drawn) | inconclusive: 7.94 µM [inhibitor, partial curve, poor fit] | 
Cc1ccsc1C(=O)N1CCC(N2C[C@H](O)C[C@H]2C(=O)NC2CCCCC2)CC1 | inconclusive: 11.2 µM [inhibitor, single point] | 
O=C(c1ccc(CS(=O)c2ccccc2Cl)o1)N1CCN(c2ccccc2F)CC1 (stereo not drawn) | inconclusive: 3.98 µM [inhibitor, partial curve] | 
Oc1ccccc1CN1CCNc2cnc(OCc3cccnc3)cc2C1 | inactive | 
Cc1ccc(CN2CCC(CNC(=O)Nc3c(C)cccc3C)C2)cc1 (stereo not drawn) | inconclusive: 8.91 µM [inhibitor, partial curve, poor fit] | 
CCC1Oc2ccc(NC(=O)Cc3ccc(F)cc3)cc2CN(Cc2ccccc2F)C1=O (stereo not drawn) | inactive | 
COc1ccccc1-c1c(C)nn2c(C(F)(F)F)cc(-c3ccccc3)nc12 | inconclusive: 11.2 µM [inhibitor, single point] | 
CSc1cccc(NC(=O)c2ccc3c(c2)c(C)c(C)n3Cc2ccc(F)cc2)c1 | active: 10 µM | 
CCCCCNC(=O)c1nnn2cc(C)[nH]c(=O)c12 | inconclusive: 17.8 µM [inhibitor, single point] | 
COc1ccc(-c2cc3c(ccn3C(C)C)c(C(=O)NCc3c(C)cc(C)[nH]c3=O)n2)cn1 | active: 6.31 µM | 
N#Cc1ccccc1OCc1nnc(C(=O)N2CCC[C@@H]2c2nc3ccccc3[nH]2)n1-c1ccccc1 | inconclusive: 1.26 µM [inhibitor, partial curve, poor fit] | 
Cc1nc(CCNC(=O)Nc2ccccc2)no1 | inactive | 
COc1cc2nc(SCc3ccc(F)cc3)n3nc(CCn4c(C)nc5ccccc54)nc3c2cc1OC | inconclusive: 0.891 µM [inhibitor, full curve, poor fit] | 
O=C1COc2ccc(OCc3ccccc3)nc2CN1CCOc1ccccc1 | inconclusive: 10 µM [inhibitor, partial curve] | 
CC(=O)c1cccc(NC(=O)OC[C@H]2C[C@@H]3CCN2C[C@@H]3c2cc(C3CCCC3)nc(C)n2)c1 | inconclusive: 1.26 µM [inhibitor, partial curve, poor fit] | 
Cc1ccc(NC(=O)N2C[C@@H](F)C[C@H]2C(=O)N2CCCCC2)cc1 | inactive | 
N#Cc1cccc(C(=O)N2CC(COc3ccccc3)C3(C2)CN(c2ccccc2)C3)c1 (stereo not drawn) | inconclusive: 12.6 µM [inhibitor, single point] | 
CCOC(=O)c1ccccc1NC(=O)CSc1ncc2c(n1)-c1ccccc1N(CC)S2(=O)=O | inconclusive: 11.2 µM [inhibitor, single point] | 
O=C1NCc2ccccc2CC12CCN(Cc1cccc(O)c1)CC2 | inactive | 
CCc1ccc2c(c1)c(=O)c(C(=O)c1ccc(C)cc1)cn2CC(=O)Nc1ccc2c(c1)OCCO2 | inconclusive: 11.2 µM [inhibitor, single point] | 
